Measured values taken from PubChem BioAssay AID1768 (National Center for Advancing Translational Sciences (NCATS), 2009).
About 620 (0.23%) of roughly 270,000 compounds were called active. Inconclusive means that the source gave no clear call. Such entries were picked first, then a sample of the others. Calls follow the shape of the dose curve; as a rule, active = well fitted inhibition curve with a large enough effect in the polarisation, with a control signal flat (not every such curve was filed as active); inconclusive = small, poorly fitted or top-dose-only effect, or effect the other way, or a change in a side signal; inactive = no such curve, though single readings can be large or run the other way; the % refers to the polarisation. Potencies of inconclusive entries are doubtful fits and often do not repeat. A note “side channel” means that the fit belongs to a control or component signal, not to the main read-out.

The compounds below were run against Menin (Homo sapiens) (UniProt O00255) (assay: qHTS Assay for Inhibitors Targeting the Menin-MLL Interaction in MLL Related Leukemias: Competition With Texas Red Labeled MLL-derived Mutant Peptide). Details: fluorescence polarization; FP activity change, negative = inhibition: at 61.6 µM (top of the series).
For FP activity change, negative = inhibition in this document: % of control where 0% means no effect.
Potency is read from the fitted curve at half-maximal effect; tags tell the direction and shape of the fitted curve or compound fluorescence and quenching.

Sequence of UniProt O00255 (O00255 whole entry, looked up): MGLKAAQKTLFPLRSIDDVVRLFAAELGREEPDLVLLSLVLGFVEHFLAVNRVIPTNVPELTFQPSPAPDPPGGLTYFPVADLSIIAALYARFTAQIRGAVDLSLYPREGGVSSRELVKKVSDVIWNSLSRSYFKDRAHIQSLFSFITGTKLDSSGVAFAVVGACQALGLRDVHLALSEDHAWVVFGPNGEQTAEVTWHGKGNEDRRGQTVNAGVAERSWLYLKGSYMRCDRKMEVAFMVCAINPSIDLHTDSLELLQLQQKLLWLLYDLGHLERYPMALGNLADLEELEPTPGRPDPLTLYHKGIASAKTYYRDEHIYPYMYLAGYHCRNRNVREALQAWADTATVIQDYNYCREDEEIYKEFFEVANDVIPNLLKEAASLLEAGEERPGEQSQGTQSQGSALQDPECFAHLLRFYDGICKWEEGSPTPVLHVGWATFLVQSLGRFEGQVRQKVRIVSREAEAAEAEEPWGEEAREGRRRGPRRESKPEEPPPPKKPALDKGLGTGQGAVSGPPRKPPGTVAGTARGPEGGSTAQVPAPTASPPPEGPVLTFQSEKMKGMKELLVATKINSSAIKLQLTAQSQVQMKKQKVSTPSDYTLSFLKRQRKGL

| SMILES | Potency | FP activity change, negative = inhibition |
| --- | --- | --- |
| COc1ccccc1N(C(=O)c1csnn1)C(C(=O)NC1CCCC1)c1ccccc1 (configuration not stated) | inconclusive: 25.1 µM [inhibitor, partial curve, poor fit] |  |
| COc1cc([N+](=O)[O-])ccc1NC(=O)CCCOc1ccccc1 | inconclusive: 25.1 µM [quencher, side channel, partial curve] |  |
| C=C(C)C(O)/C=C/c1ccc(C)cc1 (configuration not stated) |  | inactive: 8.45% [at 11.7 µM] |
| COc1cc(NC(=O)c2ccc(-c3cccc([N+](=O)[O-])c3)o2)ccc1NC(=O)C(C)C | inconclusive: 12.6 µM [quencher, side channel, partial curve] |  |
| CCOC(=O)C1CSC(CC(=O)Nc2ccc(Cl)c(Cl)c2)C(=O)N1 (configuration not stated) | inconclusive: 20 µM [quencher, side channel, single point] |  |
| CCOC(=O)C(C#N)c1ccccn1 (configuration not stated) | inconclusive: 39.8 µM [inhibitor, single point] |  |
| CC(C)=CCN1CCN(CCC2=C(C)CCCC2(C)C)CC1CCO (configuration not stated) | inconclusive: 10 µM [fluorescent, side channel, partial curve] |  |
| Clc1ccc(SCc2cc(-c3ccccc3)no2)cc1 | inconclusive: 25.1 µM [inhibitor, single point] |  |
| CCOC(=O)C1=C(O)/C(=C/c2ccc(OCC(=O)O)c(OCC)c2)SC1=Nc1ccccc1 | inconclusive: 31.6 µM [quencher, side channel, single point] |  |
| O=S1(=O)c2ccccc2N=NN1Cc1cc(Cl)cc(Cl)c1 | inconclusive: 10 µM [quencher, side channel, partial curve] |  |
| O=C(COC(=O)CCCN1C(=O)c2ccccc2C1=O)Nc1cc(Cl)cc(Cl)c1 | inconclusive: 25.1 µM [quencher, side channel, partial curve] |  |
| Cc1ccccc1NC(C)C(=O)N/N=C/c1c[nH]c2ccccc12 (configuration not stated) | inconclusive: 15.8 µM [quencher, side channel, partial curve] |  |
| CCO[C@@H]1OC(C(=O)N2CCN(Cc3ccccc3)CC2)=C[C@H](c2ccc(C(F)(F)F)cc2)[C@H]1CCCO | inconclusive: 8.91 µM [fluorescent, side channel, partial curve] |  |
| COc1ccccc1NC(=O)CC1Nc2ccccc2NC1=O (configuration not stated) | inconclusive: 25.1 µM [quencher, side channel, partial curve] |  |
| Cc1cc(C=C2C(=O)CCCC2=O)c(C)n1-c1ccccc1 | inconclusive: 14.1 µM [inhibitor, partial curve] |  |
| c1nnc2c3c4c(sc3ncn12)CCCC4 |  | inactive: -1.85% |
| COc1ccccc1NC(=S)N1CCN(C(c2ccccc2)c2ccccc2)CC1 | inconclusive: 2.51 µM [fluorescent, side channel, partial curve, poor fit] |  |
| CCOc1cc(CNCc2ccccc2)ccc1OCc1ccc(Cl)cc1 | inconclusive: 5.62 µM [fluorescent, side channel, full curve, poor fit] |  |
| O=C(CC1NC(=O)NC1=O)Nc1cccc2ccccc12 (configuration not stated) | inconclusive: 14.1 µM [inhibitor, partial curve, poor fit] |  |

| SMILES | Potency | FP activity change, negative = inhibition |
| --- | --- | --- |
| O=C1NC(Cc2c[nH]c3ccccc23)C(=O)N1Cc1cccc2ccccc12 (configuration not stated) | inconclusive: 22.4 µM [quencher, side channel, single point] |  |
| C#CCOCCOCCOCCNc1nc(N2CCN(C(=O)[C@H]([C@@H](C)CC)n3cc([C@@H](N)CC(C)C)nn3)CC2)nc(N2CCN(C(=O)[C@H](Cc3cc4ccccc4[nH]3)n3cc([C@@H](N)Cc4ccc(O)cc4)nn3)CC2)n1 | inconclusive: 1.58 µM [fluorescent, side channel, full curve] |  |
| O=C1C=CC2(OCCCO2)C(Br)=C1CO |  | inactive: -17% |
| Cc1cc(C(F)F)n2nc(C(=O)Nc3ccccc3Br)nc2n1 | inconclusive: 31.6 µM [inhibitor, single point] |  |
| Cc1ccc(-c2csc(N/N=C/c3ccco3)n2)cc1 | inconclusive: 25.1 µM [quencher, side channel, partial curve] |  |
| Cc1nn(S(=O)(=O)c2cccc([N+](=O)[O-])c2)c(C)c1S(=O)(=O)N1CCOCC1 | inconclusive: 5.62 µM [inhibitor, partial curve] |  |
| CCc1ccc(NC(=O)c2ccc3c(c2)C(=O)N(Cc2ccco2)C3=O)cc1 | inconclusive: 20 µM [quencher, side channel, partial curve] |  |
| Cc1ccc(C(=O)Nc2nc(=O)n(C(=O)C3CC3)s2)cc1 | inconclusive: 28.2 µM [quencher, side channel, single point] |  |
| CCOC(=O)C1=C(O)/C(=C/c2ccc(CNC(=O)C(=O)Nc3ccc(C)cc3)o2)N=C1C | inconclusive: 14.1 µM [quencher, side channel, partial curve] |  |
| O=C(NNC(=S)NC(=O)c1sc2ccccc2c1Cl)c1ccc(Cl)cc1 | inconclusive: 14.1 µM [quencher, side channel, partial curve] |  |
| O=C(O)c1cc(Cl)c2ccccc2c1O | inconclusive: 31.6 µM [quencher, single point] |  |
| O=C(CSc1ccc2ccccc2c1)Nc1ccc(S(=O)(=O)Nc2nccs2)cc1 | inconclusive: 14.1 µM [quencher, side channel, partial curve] |  |
| C=CCc1ccccc1OCC(O)CN1CCN(CCN2C(=O)c3cccc4cccc(c34)C2=O)CC1 (configuration not stated) | inconclusive: 12.6 µM [inhibitor, partial curve] |  |
| O=C(COc1ccc(/C=N/NS(=O)(=O)c2ccccc2)cc1)Nc1ccccc1 | inconclusive: 22.4 µM [quencher, side channel, partial curve] |  |
| CN(Cc1ccc(C(F)(F)F)cc1)C(=O)c1ccc(Oc2ccccc2)cc1 | inconclusive: 22.4 µM [fluorescent, side channel, partial curve] |  |
| Cc1ccc(C2C3=C(Nc4[nH]n(-c5ccccc5)c(=O)c42)c2ccccc2C3=O)cc1 (configuration not stated) | inconclusive: 39.8 µM [quencher, side channel, single point] |  |
| Cc1nn(C(=O)CN2C(=O)c3ccccc3C2=O)c(C)c1Br | inconclusive: 22.4 µM [inhibitor, single point] |  |
| O=C1OC2(CCCCC2)CC2=C1C1O[C@](c3ccsc3)(Cc3c1ccc1ccccc31)O2 | inconclusive: 2.82 µM [quencher, side channel, partial curve] |  |
| Cc1ccc(Cl)cc1NC(=O)COc1ccccc1 |  | inactive: 7.77% |

| SMILES | Potency | FP activity change, negative = inhibition |
| --- | --- | --- |
| CSc1cccc(NC(=O)c2ccc(NC3=NC4CS(=O)(=O)CC4S3)cc2)c1 (configuration not stated) | inconclusive: 25.1 µM [quencher, side channel, single point] |  |
| Cc1cc(O)c(C(C)C)cc1C1(c2cc(C(C)C)c(O)cc2C)OC(=O)c2ccccc21 |  | inactive: -12.7% |
| CCOC(=O)C1=CC2(CC)CCCN3CCc4c(n1c1ccccc41)C32 (configuration not stated) | inconclusive: 25.1 µM [inhibitor, partial curve] |  |
| CCCc1ccc(OCCNC(=O)C2CCCCC2)cc1 | inconclusive: 2.51 µM [fluorescent, side channel, full curve] |  |
| COc1ccc(CN2C(=O)Cc3c2nc(N)c2c(N)nc(N4CCCCC4)c(C#N)c32)cc1 | inconclusive: 12.6 µM [quencher, side channel, partial curve] |  |
| CC(C)(C)c1ccc(C(=O)CCCN2CCC(OC(c3ccccc3)c3ccccc3)CC2)cc1 |  | inactive: -14.1% |
| CN(c1ccccc1)c1ccc(/C=c2\s/c(=C(/C#N)C(=O)C(C)(C)C)n(Cc3ccco3)c2=O)cc1 | inconclusive: 7.08 µM [fluorescent, side channel, partial curve] |  |
| O=C(/C=C/c1ccc2c(c1)OCO2)N1CCN(c2ccc(Cl)cc2)CC1 | inconclusive: 39.8 µM [inhibitor, single point] |  |
| O=[N+]([O-])c1ccc(C2Nc3cccc4cccc(c34)N2)cc1 | inconclusive: 7.94 µM [quencher, side channel, partial curve] |  |
| C[C@@]12CC(=O)NC1N(C(=O)c1cccc(C(F)(F)F)c1)C(c1ccccc1OC(=O)c1cccc(C(F)(F)F)c1)C2 (some centres not stated) | inconclusive: 7.08 µM [fluorescent, side channel, partial curve] |  |
| COc1ccc(Br)c(C(=O)Nc2nc3ccccc3[nH]2)c1 | inconclusive: 35.5 µM [fluorescent, side channel, single point] |  |
| O=C(Nc1ccc(SC(F)F)cc1)c1cccc2nc3ccccc3nc12 |  | inactive: -5.12% |
| CC(C)CC(=O)NNC(=O)c1ccc(Cl)cc1 |  | inactive: 15.2% |
| Cc1cccc(/C=N/NC(=O)c2cccc([N+](=O)[O-])c2)n1 | inconclusive: 31.6 µM [quencher, side channel, single point] |  |
| Nc1cc(-c2ccccc2)ccc1O | inconclusive: 35.5 µM [quencher, side channel, single point] |  |
| O=C(NC(=S)NNC(=O)c1cccs1)c1ccco1 |  | inactive: 7.06% |
| COc1ccc(-c2c(C)nc3c(-c4ccc(F)cc4)cnn3c2N)cc1 | inconclusive: 10 µM [quencher, side channel, partial curve] |  |
| CCCCCC(O)c1cccc(OCc2ccc3ccccc3n2)c1 (configuration not stated) | inconclusive: 20 µM [fluorescent, side channel, partial curve] |  |
| CCN(CC)S(=O)(=O)c1ccc(C(=O)NCc2n[nH]c(=S)n2-c2ccc(Cl)c(Cl)c2)cc1 | inconclusive: 14.1 µM [quencher, side channel, partial curve] |  |
